Measurements from PubChem BioAssay AID686979 (National Center for Advancing Translational Sciences (NCATS), 2013).
The whole screen tested about 420,000 compounds, of which about 50,000 (12%) were called active. The inconclusive results got no clear call from the source; some entries with a clear call stand among them for comparison. Calls follow the shape of the dose curve; as a rule, active = well fitted inhibition curve with a large enough effect; inconclusive = small, poorly fitted or top-dose-only effect; inactive = flat fitted curve, though single readings scatter. No potency is given beside an inconclusive call; the fits are too rough.

Assay: qHTS for Inhibitors of human tyrosyl-DNA phosphodiesterase 1 (TDP1): qHTS in cells in presence of CPT; also: nearly all actives have a fitted effect of over 55% in size
Details: chicken DT40 Tdp1-/-;hTDP1 cells + 20 nM CPT, ATP luminescence, 48 h; activity change, negative = growth inhibition: at 46.2 µM (top of the series)
Method in brief: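 Chicken DT40 Tdp1-/- cells stably complemented with human TDP1 were seeded at 400 cells/well in medium containing 20 nM camptothecin, exposed to pin-transferred compounds, and grown at 37 °C for at least 48 hr. Viability was read as ATP luminescence.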
% is scaled to controls: 0 for no effect and ±100 for the full control effect; potency is read from the fitted curve at half-maximal effect; tags tell the direction and shape of the fitted curve.

Row | SMILES | Potency | activity change, negative = growth inhibition
1 | COc1ccc(/C=C2/SC(=S)N(c3ccc(S(=O)(=O)Nc4nccs4)cc3)C2=O)cc1 | inconclusive [inhibitor, single point] | 
2 | Cc1ccc(C)n1-c1nnc(N2CCC(C(=O)N3CCN(C)CC3)CC2)s1 | inconclusive [inhibitor, single point] | 
3 | COc1cccc(C(=O)Nc2ccc(-c3cn4cccnc4n3)cc2)c1OC | inconclusive [inhibitor, single point] | 
4 | COc1ccc(/C=C2\CCCC3C2=NN(C(=O)c2ccco2)C3c2ccc(OC)c(OC)c2)cc1OC (centres undefined) | inconclusive [inhibitor, single point] | 
5 | c1ccc(Cn2c(NCc3ccco3)nc3ccccc32)cc1 | inconclusive [inhibitor, single point] | 
6 | CC1CCN(S(=O)(=O)c2ccc(NC(=O)CCN3C(=O)C4CC=CCC4C3=O)cc2)CC1 (centres undefined) |  | inactive: -14.1%
7 | Nc1[nH]ncc1S(=O)(=O)c1ccccc1 |  | inactive: -3.83%
8 | CCOC(=O)C(C(=O)Nc1nc2ccccc2s1)C1CCCCC1 (centres undefined) | inconclusive [inhibitor, single point] | 
9 | CCc1ccc(C(O)c2ncc(-c3ccccc3C(F)(F)F)[nH]2)cc1 (centres undefined) | active: 29.1 µM | 
10 | Cc1nn(-c2ccccc2)c2[nH]c(=O)c(CNCc3ccc4c(c3)OCO4)cc12 | active: 18.4 µM | 
11 | CCOC(=O)Nc1ccc2c(COC(=O)CNS(=O)(=O)c3cccc(Br)c3)cc(=O)oc2c1 |  | inactive: 4.8%
12 | O=c1[nH][nH]cc1C=Nc1ccccc1O | inconclusive [inhibitor, single point] | 
13 | CCC1(c2ccccc2)NC(=O)N(CC(=O)Nc2ccc(Cl)c(S(=O)(=O)N3CCCCC3)c2)C1=O (centres undefined) | inconclusive [inhibitor, single point] | 
14 | COc1cc2ccccc2cc1C(=O)Nc1ccc(Cl)c(-c2nc3ccccc3o2)c1 | inconclusive [inhibitor, single point] | 
15 | Cc1ccc(N2C(=O)c3[nH]nc(-c4ccc(Cl)cc4)c3C2c2ccc(F)cc2)cc1 (centres undefined) | active: 14.6 µM | 
16 | COCCN1CCN(c2c3c(nc4cc(-c5cccc(F)c5)nn24)CCC3)CC1 | inconclusive [inhibitor, single point] | 
17 | CCc1nc(Nc2ccccc2)c2oc3ccccc3c2n1 | inconclusive [inhibitor, single point] | 
18 | CC(=O)N1CCc2cc(S(=O)(=O)Nc3ccc(C)cc3)ccc21 | inconclusive [inhibitor, partial curve] | 
19 | Cc1ccc(N(C(=O)c2snc(C(N)=O)c2N)C(C(=O)NCCC(C)C)c2ccco2)cc1 (centres undefined) | inconclusive [inhibitor, single point] | 
20 | CCC(C)NC(=O)c1ccc2nc(Cc3ccc(OC)cc3)oc2c1 (centres undefined) | inconclusive [inhibitor, single point] | 
21 | O=C(NCc1ccc2c(c1)OCO2)c1cc2c(s1)CS(=O)(=O)C2 | inconclusive [inhibitor, partial curve] | 
22 | O=[N+]([O-])c1cc2cccnc2c2ncccc12 | inconclusive [inhibitor, single point] | 
23 | Cc1cccn2c(=O)c3cc(S(=O)(=O)c4ccccc4)c(=N)n(Cc4cccnc4)c3nc12 |  | inactive: -28.2%

Row | SMILES | Potency | activity change, negative = growth inhibition
24 | CCOC(=O)Cc1ccc(NS(=O)(=O)c2ccc(SC)cc2)cc1 | inconclusive [inhibitor, single point] | 
25 | CCOc1ccc(N(CC(=O)NC2CC3CCC2C3)S(=O)(=O)c2ccccc2)cc1 (centres undefined) | inconclusive [inhibitor, single point] | 
26 | COc1ccc(NC(=O)CSCc2cnn(-c3ccccc3)c2-n2cccc2)cc1 | inconclusive [inhibitor, single point] | 
27 | COc1ccc(C(NC(=O)C2CCN(CCCOc3ccccc3)CC2)c2cccs2)cc1 (centres undefined) | inconclusive [inhibitor, single point] | 
28 | COc1cccc(Cn2c(=O)c(C)nc3cnc(N4CCNCC4)nc32)c1 |  | inactive: 7.21%
29 | CC(C)c1cccc(-c2ccc3c(c2)S(=O)(=O)c2cccc(C(=O)NCc4ccco4)c2C3=O)c1 | inconclusive [inhibitor, single point] | 
30 | CCn1ccc2cc(S(=O)(=O)N3CCC(C(=O)NCCc4ccc(C)cc4)CC3)ccc21 | inconclusive [inhibitor, single point] | 
31 | Cc1cccc(NC(=O)CCCN2C(=O)C(c3ccccc3)Oc3cccnc32)c1C (centres undefined) | inconclusive [inhibitor, partial curve, poor fit] | 
32 | CCSc1ccc(-c2cc(NC=O)c3ncc(-c4cccc(C(=O)N(C)C)c4)n3c2)cc1 | inconclusive [inhibitor, single point] | 
33 | CCOC(=O)C1=C(C)Nc2nc(SCc3cccnc3)nn2C1c1ccc(OC)cc1 (centres undefined) | inconclusive [inhibitor, single point] | 
34 | CC(c1cccs1)N(Cc1ccco1)C(=O)Nc1ccc(Cl)c(Cl)c1 (centres undefined) | inconclusive [inhibitor, single point] | 
35 | O=C(NCc1ccncc1)c1cccc(F)c1 |  | inconclusive: -31.9% [inhibitor]
36 | CCN(CC)S(=O)(=O)c1ccc(C(=O)NC(=S)N2CCCCC2C)cc1 (centres undefined) | inconclusive [inhibitor, single point] | 
37 | Cc1onc(-c2c(Cl)cccc2Cl)c1C(=O)c1c[nH]c(C(=O)NCC2CCCO2)c1 (centres undefined) | inconclusive [inhibitor, single point] | 
38 | Cc1nnc(NC(=O)CSc2nc3c(c(=O)n(C)c(=O)n3C)n2C(C)C)s1 |  | inactive: -1.08%
39 | Cc1ccc(C)c(S(=O)(=O)NCc2ccc(C(=O)N3CCC(Cc4ccccc4)CC3)cc2)c1 | inconclusive [inhibitor, single point] | 
40 | Nc1c(C(=O)NCc2ccc3c(c2)OCO3)nnn1-c1ccc(OC(F)(F)F)cc1 |  | inactive: -29.3%
41 | COc1ccc(Br)cc1CN(C)C(=O)C1=CC=CN2CCS(=O)(=O)N=C12 |  | inconclusive: -32.8% [inhibitor]
42 | O=C1Nc2ccc([N+](=O)[O-])cc2OC1CCN1CCN(Cc2ccccc2)CC1 (centres undefined) |  | inactive: -19.5%
43 | COc1ccc(NS(=O)(=O)c2ccc(C)c(C(=O)N(C)CC(=O)Nc3cccc(OC)c3)c2)cc1 | inconclusive [inhibitor, partial curve] | 
44 | Cc1cc(OCC(=O)NC2CCN(C)CC2)ccc1[N+](=O)[O-] |  | inactive: -5.16%
45 | CC1=C(c2ccc(C)cc2)S(=O)(=O)N(Cc2ccc(C(=O)Nc3ccc(F)cc3C)cc2)C1=O | active: 5.8 µM | 
46 | O=C(NC(=O)c1ccc(C(F)(F)F)cc1)Nc1ccc(-c2cnco2)cc1 | inconclusive [inhibitor, single point] | 

Row | SMILES | Potency | activity change, negative = growth inhibition
47 | COc1ccccc1NC(=O)CN1C(=O)C2(SCC(=O)N2c2ccc(C)c(C)c2)c2ccccc21 (centres undefined) | inconclusive [inhibitor, partial curve] | 
48 | COC(=O)c1c(NS(=O)(=O)c2ccc(C)cc2)sc2c1CCC(C)C2 (centres undefined) |  | inactive: -12.6%
49 | CCN(CC)S(=O)(=O)c1ccc(N2CCOCC2)c(NC(=O)c2ccc(C#N)cc2)c1 |  | inactive: -12.3%
50 | O=C(CCC(=O)N/N=C/c1ccc(Br)s1)NCc1ccccc1 | inconclusive [inhibitor, full curve, poor fit] | 
51 | Cc1ccc(C)c(NC(=O)c2cnn3ccccc23)c1 | active: 5.8 µM | 
52 | O=C(O)CN1C(=O)C2C3CCC(C3)C2C1=O (centres undefined) |  | inconclusive: -9.81% [inhibitor]
53 | CCC(NC(=S)NCc1ccc(F)cc1)c1ccccc1 (centres undefined) | inconclusive [inhibitor, single point] | 
54 | COC(=O)c1cccc(NC(=O)c2cc(OC)c(OC)c(OC)c2Br)c1 |  | inactive: 11.3%
55 | CC(C)NC(=O)C(=O)NCc1ccccn1 |  | inactive: -3.26%
56 | CSCCC(NS(=O)(=O)c1ccc(C)cc1)C(=O)N(C)CC(=O)Nc1ccccc1Br (centres undefined) | inconclusive [inhibitor, single point] | 
57 | COc1cc(C(=O)Nc2cc(OC)c(OC)c(OC)c2)ccc1OCc1c(C)noc1C | inconclusive [inhibitor, single point] | 
58 | Cc1ccc(-c2nc3ccccc3o2)cc1NC(=S)NC(=O)c1cc2ccccc2o1 | active: 14.6 µM | 
59 | Cc1cccc(NC2=NC(=S)N(CC#N)C23CCCCC3)c1 |  | inactive: -2.9%
60 | O=C(c1ccc2c(Cl)c3c(nc2c1)CCCC3)N1CCN(c2ccc(F)cc2)CC1 | active: 20.6 µM | 
61 | O=C1Nc2ccc3sc4ccccc4c3c2C1=O | inconclusive [inhibitor, single point] | 
62 | COc1cc(C2c3cc4c(cc3C(OC3OC5COC(c6cccs6)OC5C(O)C3O)C3COC(=O)C23)OCO4)cc(OC)c1O (centres undefined) | active: 0.0231 µM | 
63 | CCc1nc2c(OCc3ccc(C(=O)OC)cc3)cccn2c1N(C)C(=O)c1ccc(C)cc1 | active: 23.1 µM | 
64 | COc1cccc(C(=O)Oc2cc(C)[nH]c(=O)c2[N+](=O)[O-])c1 |  | inactive: 0.282%
65 | CCOC(=O)CSC1=C(C#N)C(c2ccccc2OC)CC(=O)N1 (centres undefined) | active: 16.4 µM | 
66 | CCOc1ccc(CN2CCN(C3CCC3)CC2CCO)cc1 (centres undefined) |  | inactive: 24.3%
67 | CC(C)N1CCc2c(sc(NC(=O)c3cc(-c4cccs4)nc4ccccc34)c2C(N)=O)C1 | active: 18.4 µM | 
68 | Brc1cccc(-c2nc3cccnc3nc2-c2cccc(Br)c2)c1 | inconclusive [inhibitor, single point] | 
69 | CC(C)c1ccc(C2N=C(N)Nc3nc4ccccc4n32)cc1 (centres undefined) | inconclusive [inhibitor, single point] | 
